Experimental data: the supplement of paper PMC4604168 (melanoma cell lines)
The list shows a part of the results. Repeats are few or missing, and single values can be far off.

Each compound was assayed on A375 (assay: cell count relative to DMSO control; melanoma cells; higher = more viable cells). Conditions: library dose: standard library concentration; 72 h.
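Further: cells treated in 1,536-well plates, then fixed and DAPI-stained, with nuclei counted from automated high-throughput microscope images.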

| Compound | cell count [%] |
| --- | --- |
| O=c1[nH]nc(Sc2ncc([N+](=O)[O-])s2)n1-c1ccc2c(c1)OCCO2 + Nc1nc(F)nc2c1ncn2[C@@H]1O[C@H](CO)[C@@H](O)[C@@H]1O [fludarabine] (first compound 1 µM, partner dose 1 µM) | 34.4 |
| COc1cc(Nc2ncc(F)c(Nc3ccc4c(n3)NC(=O)C(C)(C)O4)n2)cc(OC)c1OC [Tamatinib] + CC1(C)NC(=O)N(c2ccc([N+](=O)[O-])c(C(F)(F)F)c2)C1=O [nilutamide] (first compound 2 µM, partner dose 5 µM) | 89 |
| O=c1[nH]nc(Sc2ncc([N+](=O)[O-])s2)n1-c1ccc2c(c1)OCCO2 + CC(=O)O[C@@]12CO[C@@H]1C[C@H](O)[C@@]1(C)C(=O)[C@H](O)C3=C(C)[C@@H](OC(=O)[C@H](O)[C@@H](NC(=O)OC(C)(C)C)c4ccccc4)C[C@@](O)([C@@H](OC(=O)c4ccccc4)[C@H]21)C3(C)C [Docetaxel] (first compound 1 µM, partner dose 0.0005 µM) | 65.8 |
| O=C(O)c1ccc(-c2c[nH]c3ncc(-c4ccccc4)cc23)cc1C1CCCC1 + COc1ccc(COc2ccc(Cc3cnc(N)nc3N)cc2OC)cc1 [GW2580] (first compound 0.8 µM, partner dose 5 µM) | 87.7 |
| O=c1[nH]nc(Sc2ncc([N+](=O)[O-])s2)n1-c1ccc2c(c1)OCCO2 + COc1cc(Nc2ncc(F)c(Nc3ccc4c(n3)NC(=O)C(C)(C)O4)n2)cc(OC)c1OC [Tamatinib] (first compound 1 µM, partner dose 2 µM) | 93.7 |
